Some of the results follow. Values were computed here from the reads of four pooled replicates and scatter widely.
Biological target: T1, Pho4 (S. cerevisiae) (UniProt P07270)
T1 sequence: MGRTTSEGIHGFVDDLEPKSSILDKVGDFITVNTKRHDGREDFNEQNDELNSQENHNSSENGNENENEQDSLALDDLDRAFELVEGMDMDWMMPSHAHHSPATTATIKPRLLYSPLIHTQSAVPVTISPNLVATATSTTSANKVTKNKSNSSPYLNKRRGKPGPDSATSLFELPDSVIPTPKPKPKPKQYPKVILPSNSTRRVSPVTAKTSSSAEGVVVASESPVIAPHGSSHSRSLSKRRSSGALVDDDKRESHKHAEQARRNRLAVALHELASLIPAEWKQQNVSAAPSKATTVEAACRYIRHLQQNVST
Test: relative binding free energy (BET-seq); higher = weaker binding
Conditions: reference: library average

| Sequence | relative binding free energy [kcal/mol] |
| --- | --- |
| GGGGTCACGTGGGGAG | 0.1 |
| AAATTCACGTGCGTTG | 0.2 |
| TGGCTCACGTGTCTAG | 0.36 |
| GGTTCCACGTGTTTGG | 0.12 |
| GGGGACACGTGCATGG | 0 |
| TGAGGCACGTGTTGAG | -0.08 |
| CAGGGCACGTGAGGTC | 0.24 |
| TTGATCACGTGCTTAT | 0.03 |
| ATTTTCACGTGTTCAA | 0.13 |
| GTGCACACGTGTAGGC | 0.24 |
| GGGGCCACGTGTCTGG | -0.02 |
| TGGGCCACGTGATGGA | 0.07 |
| GTAGTCACGTGTTGAT | 0.07 |
| GTTTACACGTGCGGGC | 0.12 |
| TTCATCACGTGGTGCT | -0.04 |
| TTAGTCACGTGAATTA | 0.24 |
| TGTGGCACGTGATATC | -0.02 |
| CTTGTCACGTGGTTGA | -0.02 |
| AGGTACACGTGAGATT | 0.28 |
| TGGACCACGTGCGGGT | -0.09 |
| AGGGACACGTGGCTGT | -0.17 |
| TTTACCACGTGGATGG | -0.12 |
| GGGTTCACGTGTGTTC | 0.47 |

| Sequence | relative binding free energy [kcal/mol] |
| --- | --- |
| AAGGTCACGTGCGCGT | -0.03 |
| TTGTACACGTGGTAAA | 0.05 |
| CGGAGCACGTGTGTTA | -0.14 |
| CTTTTCACGTGGAAGT | 0.25 |
| GTCTTCACGTGGTTGG | 0.19 |
| TGTCTCACGTGTCGTG | 0.28 |
| TTTGTCACGTGTATAA | 0.07 |
| TAAGCCACGTGGTGTG | -0.27 |
| TAGTTCACGTGGCTTA | 0.18 |
| GCTGGCACGTGCTGGT | -0.09 |
| ACTATCACGTGGTAGG | 0.13 |
| GGATTCACGTGTTATC | 0.31 |
| AATGACACGTGGAGGA | 0.08 |
| TGTTTCACGTGCAAGT | 0.38 |
| AATCTCACGTGAGGTA | 0.4 |
| GTGTGCACGTGATAGG | 0.2 |
| GGTTTCACGTGACTTT | 0.4 |
| TGTGGCACGTGGATCT | -0.03 |
| GATAGCACGTGGCCGG | -0.04 |
| GGAAGCACGTGATAGG | -0.08 |
| TGGGTCACGTGCCATG | -0.06 |
| TTCTGCACGTGGAGTA | -0.04 |
| TTAGGCACGTGAGCTT | 0.21 |

| Sequence | relative binding free energy [kcal/mol] |
| --- | --- |
| TAATTCACGTGTTAGC | 0.27 |
| CGCATCACGTGAGGGG | 0.38 |
| GAAGGCACGTGTGAGT | -0.04 |
| ACTGTCACGTGAAAGG | 0.32 |
| AGGCGCACGTGGTGTG | -0.28 |
| AGTATCACGTGGTGTG | 0 |
| GTGAACACGTGTGGCA | 0.05 |
| GGTGGCACGTGGGGCG | -0.2 |
| TTCGGCACGTGTGCGT | -0.14 |
| TTATCCACGTGTGGTG | 0.2 |
| AGTAACACGTGGGGGT | -0.07 |
| GTGGGCACGTGAAAAG | 0.26 |
| GAGTGCACGTGAGGAG | 0.28 |
| ATGTACACGTGATTGG | 0.09 |
| CGGTTCACGTGTTGCG | 0.17 |
| CGGGTCACGTGAGAAG | 0.4 |
| AAGGCCACGTGAGTGT | 0.01 |
| GGCCTCACGTGGGAGG | 0.18 |
| GGTTTCACGTGGTTCC | 0.29 |
| TGATTCACGTGAGCTT | 0.35 |
| TCTTGCACGTGAGCGT | 0.1 |
| AAAGTCACGTGGGAGG | -0.09 |
| AGCGGCACGTGTGCAG | -0.07 |

| Sequence | relative binding free energy [kcal/mol] |
| --- | --- |
| AGGTACACGTGTATTC | 0.16 |
| ATTTGCACGTGTCTTT | 0.06 |
| TGCTGCACGTGAAGTA | 0.29 |
| AATTGCACGTGTGGCA | -0.01 |
| ATTTTCACGTGGGTTG | 0.19 |
| TGGATCACGTGGGGTA | 0.02 |
| TTCATCACGTGCGGTT | 0.11 |
| GGTTTCACGTGTTAGT | 0.37 |
| GTATGCACGTGATGAT | 0.09 |
| TTGATCACGTGCGGAG | 0.25 |
| GGCTGCACGTGTGATT | 0.13 |
| GGCTTCACGTGCTGTT | 0.13 |
| ATAATCACGTGGAATT | 0.21 |
| AATTACACGTGTTGGA | 0.09 |
| GTACTCACGTGGTAGT | 0.16 |
| TAAAACACGTGTAGTA | 0.12 |
| TTGGGCACGTGCAGAA | -0.14 |
| CTGGTCACGTGGTCGA | 0.04 |
| TAAGCCACGTGAGGGT | 0.13 |
| GTTTGCACGTGGACTG | 0.06 |
| GGTTGCACGTGGTTCT | -0.01 |
| TTTGTCACGTGGTCCT | 0.05 |
| GGCAGCACGTGTGAGG | 0.01 |

| Sequence | relative binding free energy [kcal/mol] |
| --- | --- |
| AGGGTCACGTGATTTT | 0.38 |
| ACGCTCACGTGTGGGT | 0.28 |
| TTTGACACGTGATATG | 0.1 |
| TGAATCACGTGGGAAA | 0.21 |
| GTTTGCACGTGGTCAG | -0.16 |
| ACTGTCACGTGGTGAG | 0.07 |
| AAGTGCACGTGTAGAG | 0.02 |
| TGGGCCACGTGGGTCA | -0.25 |
| CTGATCACGTGTGTTA | 0.09 |
| TTGTACACGTGTGGAA | 0.13 |
| ATTTGCACGTGGGTAA | -0.08 |
| TTTGGCACGTGACTAG | -0.11 |
| ATAGGCACGTGTTCGG | -0.19 |
| AGTTCCACGTGTGGTT | 0.07 |
| TAGTGCACGTGGGTTA | -0.08 |
| TTAGTCACGTGGGAAG | 0.07 |
| AATGGCACGTGTGGTT | 0.06 |
| TGTCACACGTGTGGAG | 0.23 |
| GAGTTCACGTGGACTG | 0.36 |
| TGTGACACGTGGTGGA | 0.05 |
| ATGGACACGTGTGACG | 0.1 |
| GGGTTCACGTGTAGGG | 0.29 |
| CGTTTCACGTGAGATT | 0.4 |

From the BET-seq Pho4 binding data (Le et al. 2018)
